Test results: PubChem BioAssay (Tox21)
The inconclusive results got no clear call from the source; some entries with a clear call stand among them for comparison. For some of these results: A potency beside an inconclusive call is a rough fit, not a confirmed value. The source made the active and inactive calls. Unless noted, the call rests on the fitted dose curve.

Key:
[1] = qHTS assay for small molecule agonists of the p53 signaling pathway (AID 651631); settings: HCT-116 p53RE-bla reporter, beta-lactamase FRET ratio, 16 h; activation: at 73.3 µM (top of the series) unless noted; further: potency means the concentration at half of the fitted maximal effect; nearly all actives have a fitted effect of over 15% in size
How it was run: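 Read-out is beta-lactamase FRET fluorescence measured 2 h after substrate addition at room temperature, in HCT-116 cells with a p53 response element-driven reporter exposed to compounds for 16 h at 37 °C.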

[2] = qHTS assay for small molecule agonists of the p53 signaling pathway - cell viability (AID 651633); further: potency means the concentration at half of the fitted maximal effect; nearly all actives have a fitted effect of over 30% in size
How it was run: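 p53RE-bla cells were treated with compound for 16 hours at 37 C. Cytotoxicity was then measured as CellTiter-Glo luminescence after 30 min at room temperature.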

[3] = qHTS assay for small molecules that induce genotoxicity in human embryonic kidney cells expressing luciferase-tagged ATAD5 - cell viability (AID 651634); further: potency means the concentration at half of the fitted maximal effect; nearly all actives have a fitted effect of over 25% in size
How it was run: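 After 15.5 hr incubation with compound at 37C, 5% CO2, HEK293T ATAD5-luciferase cells received CellTiter-Fluor reagent; fluorescence intensity was quantified following 30 min at 37C.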

[4] = qHTS assay for small molecule disruptors of the mitochondrial membrane potential - cell viability (AID 720634); further: potency means the concentration at half of the fitted maximal effect; nearly all actives have a fitted effect of over 20% in size
How it was run: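 ATP-based luminescent viability readout (CellTiter-Glo, 30 min, room temperature) in HepG2 cells multiplexed with the m-MPI membrane potential dye; compound exposure lasted 1 hr at 37 C.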

[5] = qHTS assay for small molecule disruptors of the mitochondrial membrane potential (AID 720635; active means well fitted curve in the direction sought with a large enough effect in the repeat runs; inconclusive means weak or mixed curves; inactive means no such curve, though single readings can be large; an effect the other way counts as inactive or inconclusive; further: potency means the concentration at half of the fitted maximal effect); settings: HepG2 mitochondrial membrane potential, Mito-MPS dye ratio; ratio activity, negative = MMP loss: at 83.2 µM (top of the series) unless noted
How it was run: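 HepG2 cells exposed to compound 1 hr at 37C, then Mito-MPS dye 30 min. Ratio read of aggregate (540/590 nm) versus monomer (490/535 nm) fluorescence.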

[6] = target: Glucocorticoid receptor (Homo sapiens) (UniProt P04150); test: qHTS assay to identify small molecule agonists of the glucocorticoid receptor (GR) signaling pathway (AID 720691; active means well fitted activation curve with a large enough effect in the signal ratio in the repeat runs, not every such curve was filed as active; inconclusive means weak or mixed curves, or effect the other way; inactive means no such curve, though single readings can be large or run the other way; the % refers to the signal ratio; further: potency means the concentration at half of the fitted maximal effect); settings: GR-bla HeLa, beta-lactamase reporter ratio, 18 h; activation: at 62.4 µM (top of the series) unless noted
Chain of UniProt P04150 (P04150 whole entry, looked up): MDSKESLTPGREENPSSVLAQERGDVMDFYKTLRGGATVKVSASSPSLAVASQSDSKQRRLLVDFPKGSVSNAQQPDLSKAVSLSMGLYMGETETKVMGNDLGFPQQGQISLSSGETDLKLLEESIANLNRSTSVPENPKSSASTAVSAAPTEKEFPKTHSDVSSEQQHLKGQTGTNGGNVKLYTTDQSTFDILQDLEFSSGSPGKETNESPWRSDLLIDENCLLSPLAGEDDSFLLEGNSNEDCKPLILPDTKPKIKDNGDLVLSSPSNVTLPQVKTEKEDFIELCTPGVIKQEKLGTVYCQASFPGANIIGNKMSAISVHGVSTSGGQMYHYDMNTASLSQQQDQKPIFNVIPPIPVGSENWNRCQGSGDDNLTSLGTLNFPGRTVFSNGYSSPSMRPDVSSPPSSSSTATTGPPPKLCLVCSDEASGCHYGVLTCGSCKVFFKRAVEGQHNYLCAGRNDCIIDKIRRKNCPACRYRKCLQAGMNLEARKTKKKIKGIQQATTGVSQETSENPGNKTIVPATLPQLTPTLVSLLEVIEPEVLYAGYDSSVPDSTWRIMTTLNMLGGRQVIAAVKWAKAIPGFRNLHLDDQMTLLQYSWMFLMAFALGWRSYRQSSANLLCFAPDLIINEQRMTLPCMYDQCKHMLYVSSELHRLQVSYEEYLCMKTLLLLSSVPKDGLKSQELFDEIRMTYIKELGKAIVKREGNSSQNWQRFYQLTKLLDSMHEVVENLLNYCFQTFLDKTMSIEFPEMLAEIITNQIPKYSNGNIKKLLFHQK
How it was run: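 Cells: GR-bla HeLa, endogenous GR with stably integrated GRE-beta-lactamase reporter. Treatment 18 h, 37 C, compounds delivered in DMSO. Detection via LiveBLAzer B/G FRET substrate, 2 h RT, fluorescence intensity.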

[7] = target: Glucocorticoid receptor (Homo sapiens) (UniProt P04150); test: qHTS assay to identify small molecule antagonists of the glucocorticoid receptor (GR) signaling pathway (AID 720692; active means well fitted inhibition curve with a large enough effect in the signal ratio in the repeat runs, not every such curve was filed as active; inconclusive means weak or mixed curves, or effect the other way; inactive means no such curve, though single readings can be large or run the other way; the % refers to the signal ratio; further: potency means the concentration at half of the fitted maximal effect; on activity change, negative = inhibition: on the % scale 0 is the no-effect control and ±100 the full control effect); settings: GR-bla HeLa, beta-lactamase FRET ratio, dexamethasone-stimulated, 18 h; activity change, negative = inhibition: at 58.5 µM (top of the series) unless noted
How it was run: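 Quantitative HTS in antagonist format: HeLa cells expressing endogenous GR and a stably integrated GRE-bla reporter, stimulated with 5 nM dexamethasone (final) alongside test compounds for 18 h.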

[8] = qHTS assay to identify small molecule antagonists of the glucocorticoid receptor (GR) signaling pathway - cell viability counter screen (AID 720693; active means well fitted curve in the direction sought with a large enough effect in the repeat runs; inconclusive means weak or mixed curves; inactive means no such curve, though single readings can be large; an effect the other way counts as inactive or inconclusive; further: nearly all actives have a fitted effect of over 55% in size; further: potency means the concentration at half of the fitted maximal effect; on viability change, negative = cytotoxic: on the % scale 0 is the no-effect control and ±100 the full control effect); settings: GR-bla HeLa viability, CellTiter-Glo luminescence, 18 h, with 5 nM dexamethasone present; viability change, negative = cytotoxic: at 58.5 µM (top of the series)
[9] = qHTS assay for identifying genotoxic compounds that show differential cytotoxicity against isogenic chicken DT40 cell lines with known DNA damage response pathways - wild type cell line (AID 743012; active means well fitted curve in the direction sought with a large enough effect in the repeat runs; inconclusive means weak or mixed curves; inactive means no such curve, though single readings can be large; an effect the other way counts as inactive or inconclusive; further: potency means the concentration at half of the fitted maximal effect; nearly all actives have a fitted effect of over 60% in size); settings: DT40 wild type chicken cells viability, CellTiter-Glo, 40 h; activity change, negative = cytotoxicity: at 68.4 µM (top of the series)
How it was run: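 Luminescent ATP viability signal (CellTiter-Glo, 30 min RT) recorded after wild type DT40 cells were incubated with compounds for 40 h at 37 C/5% CO2.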

[10] = qHTS assay to test for compound auto fluorescence at 460 nm (blue) in HEK293 cell free culture (AID 720681; active means well fitted curve in the direction sought with a large enough effect in the repeat runs; inconclusive means weak or mixed curves; inactive means no such curve, though single readings can be large; an effect the other way counts as inactive or inconclusive; further: on the % scale 0 is the no-effect control and ±100 the full control effect)
How it was run: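 Compounds were added to cell-free DMEM with 10% FBS and fluorescence read directly. The blue channel used 405 nm excitation and 460 nm emission, with triamterene as the reference fluorophore.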
Tags describe the fitted curve by direction and shape or compound fluorescence and quenching.

SMILES | Potency [1] | Potency [2] | Potency [3] | Potency [4] | Potency [5] | Potency [6] | Potency [7] | activity change, negative = inhibition [7] | Potency [8] | Potency [9] | Potency [10]
OCCN1CCN(CC/C=C2/c3ccccc3Sc3ccc(C(F)(F)F)cc32)CC1 | inconclusive: 13.3 µM [cytotoxic, partial curve] | active: 29.8 µM | inconclusive: 33.5 µM [falling, partial curve, poor fit] | inconclusive: 33.5 µM [cytotoxic] | inconclusive: 2.66 µM [activator] | inconclusive: 26.8 µM | inconclusive: 26.8 µM [single point] | – | – | – | –
NC1(c2ccc(-c3nc4ccn5c(=O)[nH]nc5c4cc3-c3ccccc3)cc2)CCC1 | inconclusive: 10.6 µM [activator, partial curve, poor fit] | inconclusive: 2.66 µM [cytotoxic, partial curve] | – | – | active: 13.3 µM | – | – | inconclusive: 7.43% | – | – | –
CCCCCCCCn1sc(Cl)c(Cl)c1=O | active: 17.2 µM | – | active: 19.3 µM | active: 27.3 µM | inconclusive: 1.37 µM [activator, full curve] | inconclusive: 61.6 µM | inconclusive: 21.9 µM [cytotoxic, single point] | – | inconclusive: 21.9 µM [cytotoxic, single point] | active: 0.433 µM | –
CC(C)(C)CC(C)(C)c1ccccc1O | inconclusive: 30.8 µM [cytotoxic, partial curve] | – | inconclusive: 68.9 µM [falling, single point] | active: 27.4 µM | active: 2.18 µM | – | inconclusive: 39.1 µM [cytotoxic, partial curve] | – | active: 34.9 µM | – | –
CCCCCCCCCCCCCCCCCCNC(=O)OC1CCN(C(=O)OC[C@H](COC(=O)N(Cc2cccc[n+]2CC)C(=O)c2ccccc2OC)OC)CC1 | inconclusive: 21.1 µM [cytotoxic, partial curve] | – | inconclusive: 26.6 µM [falling, partial curve] | inconclusive: 33.5 µM [cytotoxic] | inconclusive: 23.7 µM [cytotoxic] | inconclusive: 21.3 µM [cytotoxic, partial curve] | inconclusive: 21.3 µM [cytotoxic, partial curve] | – | active: 16.9 µM | – | –
CCCCCCC(C)OC(=O)COc1nc(F)c(Cl)c(N)c1Cl (stereo not given) | inconclusive: 68.6 µM [falling, single point] | inconclusive: 77 µM [cytotoxic, single point] | – | inconclusive: 68.6 µM [cytotoxic, partial curve, poor fit] | – | – | – | – | inactive | – | –
CCCCCCCCCOC(=O)c1ccc(O)cc1 | inconclusive: 53.7 µM [cytotoxic, partial curve] | – | inconclusive: 75.9 µM [falling, single point] | inconclusive: 21.4 µM [cytotoxic, partial curve, poor fit] | active: 4.27 µM | inconclusive: 21.6 µM [cytotoxic] | inconclusive: 21.6 µM [cytotoxic] | – | inconclusive: 21.6 µM [cytotoxic, single point] | – | inactive
Oc1cc2ccccc2c2ccccc12 | inconclusive: 6.11 µM [cytotoxic, full curve] | active: 6.11 µM | – | – | active: 0.969 µM | – | active: 19.5 µM | – | – | active: 1.22 µM | –
CC(Cc1ccc(O)c(O)c1)C(C)Cc1ccc(O)c(O)c1 (stereo not given) | inconclusive: 61.1 µM [falling, partial curve] | inconclusive: 30.6 µM [cytotoxic, partial curve, poor fit] | – | – | active: 13.7 µM | inconclusive: 54.9 µM | inconclusive: 38.9 µM [cytotoxic] | – | inconclusive: 61.6 µM [cytotoxic, single point] | – | –
